# Results reported in PubChem BioAssay (Tox21).
# Where “and” joins values, the source holds several entries; their conditions need not be identical. Equal values may be shown once. Inconclusive results, whose numbers are uncertain, are shown with a selection of clear calls. For some assays here: Potencies of inconclusive entries are doubtful fits and often do not repeat. Calls of active or inactive are those of the source. Unless noted, the call rests on the fitted dose curve.
# Experiments:
# [1] = qHTS assay for small molecule agonists of the p53 signaling pathway (AID 651631); conditions: HCT-116 p53RE-bla reporter, beta-lactamase FRET ratio, 16 h; activation: at 73.3 µM (top of the series) unless noted; further: nearly all actives have a fitted effect of over 15% in size
# Summary of the method: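 p53RE-bla HCT-116 cells; compounds 16 h, 37 °C; LiveBLAzer B/G FRET substrate 2 h RT; fluorescence intensity read-out, qHTS format.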
# [2] = qHTS assay for small molecule disruptors of the mitochondrial membrane potential - cell viability (AID 720634); conditions: HepG2 viability, ATP luminescence (CellTiter-Glo), 1 h; series mostly up to 83.2 µM; further: nearly all actives have a fitted effect of over 20% in size;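 on activity change, negative = cytotoxicity: human HepG2 liver cancer cells; on the % scale 0 is the no-effect control and ±100 the full control effect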
# Summary of the method: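 HepG2, 1 hr compound, 37 C. ATP luminescence via CellTiter-Glo, 30 min RT, same well as m-MPI.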
# [3] = qHTS assay for small molecule disruptors of the mitochondrial membrane potential (AID 720635; active means well fitted curve in the direction sought with a large enough effect in the repeat runs; inconclusive means weak or mixed curves; inactive means no such curve, though single readings can be large; an effect the other way counts as inactive or inconclusive; on ratio activity, negative = MMP loss: on the % scale 0 is the no-effect control and ±100 the full control effect); conditions: HepG2 mitochondrial membrane potential, Mito-MPS dye ratio; ratio activity, negative = MMP loss: at 83.2 µM (top of the series) unless noted
# Summary of the method: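 HepG2 cells exposed to compound 1 hr at 37C, then Mito-MPS dye 30 min. Ratio read of aggregate (540/590 nm) versus monomer (490/535 nm) fluorescence.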
# [4] = qHTS assay to test for compound auto fluorescence at 460 nm (blue) in HEK293 cell free culture (AID 720681; active means well fitted curve in the direction sought with a large enough effect in the repeat runs; inconclusive means weak or mixed curves; inactive means no such curve, though single readings can be large; an effect the other way counts as inactive or inconclusive); conditions: cell-free medium, autofluorescence 405/460 nm (blue); series mostly up to 91.3 µM
# Summary of the method: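 Compounds were added to cell-free DMEM with 10% FBS and fluorescence read directly. The blue channel used 405 nm excitation and 460 nm emission, with triamterene as the reference fluorophore.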
# [5] = target: Glucocorticoid receptor (Homo sapiens) (UniProt P04150); experiment: qHTS assay to identify small molecule agonists of the glucocorticoid receptor (GR) signaling pathway (AID 720691; active means well fitted activation curve with a large enough effect in the signal ratio in the repeat runs, not every such curve was filed as active; inconclusive means weak or mixed curves, or effect the other way; inactive means no such curve, though single readings can be large or run the other way; the % refers to the signal ratio; on activation: on the % scale 0 is the no-effect control and ±100 the full control effect); conditions: GR-bla HeLa, beta-lactamase reporter ratio, 18 h; activation: at 62.4 µM (top of the series) unless noted
# Sequence of UniProt P04150 (P04150 whole entry, looked up): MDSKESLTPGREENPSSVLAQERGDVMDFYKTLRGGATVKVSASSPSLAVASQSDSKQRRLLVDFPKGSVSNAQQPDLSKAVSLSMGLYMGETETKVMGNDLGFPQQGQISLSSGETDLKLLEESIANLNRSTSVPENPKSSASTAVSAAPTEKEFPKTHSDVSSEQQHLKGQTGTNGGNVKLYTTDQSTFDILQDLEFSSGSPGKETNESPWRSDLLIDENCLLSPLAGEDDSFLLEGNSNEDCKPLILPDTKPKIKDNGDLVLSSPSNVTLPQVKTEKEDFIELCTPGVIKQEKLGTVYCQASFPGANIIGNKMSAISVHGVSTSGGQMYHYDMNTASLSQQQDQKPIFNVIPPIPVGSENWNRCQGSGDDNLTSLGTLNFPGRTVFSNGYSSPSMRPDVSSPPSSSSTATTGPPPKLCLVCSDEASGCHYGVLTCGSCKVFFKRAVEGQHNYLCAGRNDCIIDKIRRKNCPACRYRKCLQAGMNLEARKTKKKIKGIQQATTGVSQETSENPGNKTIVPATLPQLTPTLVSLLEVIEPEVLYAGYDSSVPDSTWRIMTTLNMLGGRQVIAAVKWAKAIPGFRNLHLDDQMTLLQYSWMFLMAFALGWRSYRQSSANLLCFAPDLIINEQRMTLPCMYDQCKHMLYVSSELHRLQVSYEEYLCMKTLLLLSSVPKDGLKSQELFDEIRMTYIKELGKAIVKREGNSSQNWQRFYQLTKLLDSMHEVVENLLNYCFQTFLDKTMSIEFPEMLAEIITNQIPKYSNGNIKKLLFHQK
# Summary of the method: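 qHTS in GR-bla HeLa cells: 4 h settling at 37 C/5% CO2, 18 h compound incubation at 37 C, 2 h LiveBLAzer B/G FRET substrate at room temperature, fluorescence intensity measured.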
# [6] = target: Glucocorticoid receptor (Homo sapiens) (UniProt P04150); experiment: qHTS assay to identify small molecule antagonists of the glucocorticoid receptor (GR) signaling pathway (AID 720692; active means well fitted inhibition curve with a large enough effect in the signal ratio in the repeat runs, not every such curve was filed as active; inconclusive means weak or mixed curves, or effect the other way; inactive means no such curve, though single readings can be large or run the other way; the % refers to the signal ratio; on activity change, negative = inhibition: on the % scale 0 is the no-effect control and ±100 the full control effect); conditions: GR-bla HeLa, beta-lactamase FRET ratio, dexamethasone-stimulated, 18 h; activity change, negative = inhibition: at 58.5 µM (top of the series) unless noted
# Summary of the method: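 Inhibition of glucocorticoid signalling is measured in HeLa cells with a GRE-controlled beta-lactamase reporter; cells are co-treated with compound and 5 nM dexamethasone (final) for 18 h before FRET substrate readout.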
# [7] = qHTS assay to identify small molecule antagonists of the glucocorticoid receptor (GR) signaling pathway - cell viability counter screen (AID 720693; active means well fitted curve in the direction sought with a large enough effect in the repeat runs; inconclusive means weak or mixed curves; inactive means no such curve, though single readings can be large; an effect the other way counts as inactive or inconclusive; further: nearly all actives have a fitted effect of over 55% in size); conditions: GR-bla HeLa viability, CellTiter-Glo luminescence, 18 h, with 5 nM dexamethasone present; viability change, negative = cytotoxic: at 58.5 µM (top of the series)
# [8] = qHTS assay for small molecules that induce genotoxicity in human embryonic kidney cells expressing luciferase-tagged ATAD5 - cell viability (AID 651634); conditions: HEK293T ATAD5-luc cells viability, CellTiter-Fluor, 15.5 h; series mostly up to 83.3 µM; further: nearly all actives have a fitted effect of over 25% in size
# Summary of the method: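 Viability read: CellTiter-Fluor fluorescence, 30 min at 37C. Cells: HEK293T, luciferase-tagged ATAD5. Exposure: 15.5 hr, 37C, 5% CO2, compound or DMSO vehicle.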
# [9] = qHTS assay to test for compound auto fluorescence at 460 nm (blue) in HEK293 cells (AID 720678; active means well fitted curve in the direction sought with a large enough effect in the repeat runs; inconclusive means weak or mixed curves; inactive means no such curve, though single readings can be large; an effect the other way counts as inactive or inconclusive); conditions: blue autofluorescence 405/460 nm
# Summary of the method: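 Blue-channel (Ex/Em 405/460 nm) intensity measured in HEK293 cultures after overnight compound exposure at 37C; signal expressed relative to triamterene. Cells plated 2,000 per well in 10% dialyzed FBS medium and allowed 4-5 hr to attach.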
# [10] = qHTS assay for identifying genotoxic compounds that show differential cytotoxicity against isogenic chicken DT40 cell lines with known DNA damage response pathways - wild type cell line (AID 743012; active means well fitted curve in the direction sought with a large enough effect in the repeat runs; inconclusive means weak or mixed curves; inactive means no such curve, though single readings can be large; an effect the other way counts as inactive or inconclusive; further: nearly all actives have a fitted effect of over 60% in size); conditions: DT40 wild type chicken cells viability, CellTiter-Glo, 40 h; activity change, negative = cytotoxicity: at 68.4 µM (top of the series)
# Summary of the method: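 First, wild type DT40 cells were plated at 300 per well and equilibrated about 0.5 h at 37 C/5% CO2. Next, compounds in DMSO were added and exposure lasted 40 h. Finally, CellTiter-Glo was added for 30 min at room temperature and luminescence recorded.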
# [11] = qHTS assay to test for compound auto fluorescence at 460 nm (blue) in HepG2 cells (AID 720687; active means well fitted curve in the direction sought with a large enough effect in the repeat runs; inconclusive means weak or mixed curves; inactive means no such curve, though single readings can be large; an effect the other way counts as inactive or inconclusive); conditions: autofluorescence 405/460 nm, 1 h
# Summary of the method: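 HepG2 cells in MEM with 10% FBS, attached overnight at 37 C, were exposed to compound or DMSO for 1 hr at 37 C, 5% CO2. Blue fluorescence was read at 405/460 nm, with triamterene as reference fluorophore.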
# Potency means the concentration at half of the fitted maximal effect; tags describe the fitted curve by direction and shape or compound fluorescence and quenching.
smiles,measurement,setting,value
CCN(CC)c1ccc2c(C)cc(=O)oc2c1,Potency,[1],active: 30.9 µM and active: 27.3 µM
same,Potency,[2],"inconclusive: 54.9 µM [cytotoxic, partial curve] and inconclusive: 30.6 µM [cytotoxic, partial curve, poor fit]"
same,Potency,[3],"inconclusive: 2.45 µM [fluorescent, full curve] and inconclusive: 2.73 µM [fluorescent, full curve]"
same,Potency,[4],active: 39.8 µM
same,Potency,[5],"inconclusive: 22.1 µM [fluorescent, partial curve] and inconclusive: 61.7 µM [fluorescent, partial curve, poor fit]"
same,Potency,[6],inconclusive: 49.4 µM [fluorescent] and inconclusive: 49 µM [fluorescent]
O=C(c1ccc(O)cc1)c1ccc(O)cc1O,Potency,[1],"active: 27.6 µM and inconclusive: 77 µM [activator, partial curve, poor fit]"
same,Potency,[2],"active: 55 µM and inconclusive: 68.6 µM [cytotoxic, partial curve, poor fit]"
same,Potency,[3],active: 19.5 µM and active: 54.5 µM
same,activation,[5],inconclusive: -10.5%
same,Potency,[6],"inconclusive: 55.5 µM [inhibitor, single point] and inconclusive: 54.9 µM [inhibitor, single point]"
Oc1c(Cl)cc(Cl)c(Cl)c1Cc1c(O)c(Cl)cc(Cl)c1Cl,Potency,[1],active: 13.3 µM and active: 9.66 µM and active: 54.5 µM
same,Potency,[2],"inconclusive: 841 nM [cytotoxic, full curve, poor fit] and inconclusive: 272 nM [cytotoxic, full curve, poor fit] and inconclusive: 77 µM [cytotoxic, single point]"
same,Potency,[3],active: 841 nM and active: 484 nM and active: 344 nM
same,Potency,[6],"inconclusive: 848 nM [cytotoxic, full curve] and inconclusive: 48.9 µM [cytotoxic, partial curve] and inconclusive: 245 nM [cytotoxic, full curve]"
same,Potency,[7],active: 1.69 µM and active: 21.8 µM and active: 19.5 µM
Oc1ccc(Cl)cc1C1CCCC1,Potency,[1],"inconclusive: 77 µM [falling, single point]"
same,Potency,[2],"inconclusive: 61.1 µM [cytotoxic, single point]"
same,Potency,[3],active: 3.86 µM
Oc1ccc(-c2ccccc2)c(Cl)c1,Potency,[1],inconclusive: 61.1 µM
same,Potency,[2],"inconclusive: 68.6 µM [cytotoxic, single point]"
same,Potency,[3],active: 8.63 µM
same,Potency,[6],inactive
CCOC(=O)C1=C(C)NC(C)=C(C(=O)OCC)C1c1ccccc1/C=C/C(=O)OC(C)(C)C,Potency,[1],active: 29.8 µM
same,Potency,[2],"inconclusive: 10.6 µM [cytotoxic, partial curve]"
same,Potency,[3],active: 10.6 µM
same,Potency,[6],"inconclusive: 30.1 µM [cytotoxic, single point]"
same,Potency,[7],"inconclusive: 26.8 µM [cytotoxic, single point]"
CN(C)C(=O)C1(N2CCCCC2)CCN(CC[C@@]2(c3ccc(Cl)c(Cl)c3)CN(C(=O)c3ccccc3)CCO2)CC1,Potency,[1],inconclusive: 64.1 µM [cytotoxic]
same,Potency,[2],"inconclusive: 50.9 µM [cytotoxic, partial curve, poor fit]"
same,Potency,[3],inconclusive: 64.1 µM [inhibitor]
same,Potency,[5],"inconclusive: 36.3 µM [cytotoxic, partial curve]"
same,Potency,[6],"inconclusive: 57.6 µM [cytotoxic, single point]"
same,Potency,[7],"inconclusive: 57.6 µM [cytotoxic, single point]"
O=C(Nc1ccccc1)c1cc(Cl)ccc1O,Potency,[1],inconclusive: 6.86 µM [full curve]
same,Potency,[8],"inconclusive: 48.6 µM [falling, partial curve]"
same,Potency,[2],active: 1.93 µM
same,Potency,[6],"inconclusive: 6.92 µM [falling, partial curve, poor fit]"
same,Potency,[7],"inconclusive: 7.76 µM [cytotoxic, partial curve, poor fit]"
Oc1c(Br)cc(Br)c2cccnc12,Potency,[1],active: 5.96 µM
same,Potency,[2],inactive
same,"ratio activity, negative = MMP loss",[3],inconclusive: 5.15%
same,Potency,[9],"inconclusive: 4.47 µM [fluorescent, partial curve, poor fit]"
same,Potency,[5],"inconclusive: 21.3 µM [rising, partial curve]"
same,Potency,[6],inconclusive: 8.49 µM
same,Potency,[10],active: 11.9 µM
CCOC(=O)O[C@H](C)OC(=O)c1ccc2c(c1)cc(C(=O)NC1CCN(C(C)C)CC1)n2Cc1cc(-c2ccc(Cl)s2)on1,Potency,[1],"inconclusive: 28.6 µM [cytotoxic, full curve]"
same,Potency,[2],"inconclusive: 64.1 µM [cytotoxic, single point]"
same,Potency,[3],active: 64.1 µM
same,Potency,[5],"inconclusive: 10.2 µM [cytotoxic, full curve]"
same,Potency,[6],"inconclusive: 32.4 µM [cytotoxic, partial curve]"
same,Potency,[7],active: 20.4 µM
N=C1N=C(N)c2cc3ccccc3cc21,Potency,[1],active: 9.69 µM
same,Potency,[2],inactive
same,Potency,[9],active: 35.5 µM [fluorescent]
same,Potency,[4],active: 31.6 µM
same,Potency,[11],active: 38.7 µM [fluorescent]
same,Potency,[5],"inconclusive: 43.6 µM [cytotoxic, partial curve]"
same,Potency,[6],inconclusive: 26 µM [cytotoxic]
same,Potency,[7],active: 21.9 µM
CCC(Cc1c(I)cc(I)c(N)c1I)C(=O)O (stereo not drawn),Potency,[1],"inconclusive: 66.4 µM [cytotoxic, partial curve, poor fit]"
same,Potency,[8],inactive
same,Potency,[3],inactive
same,Potency,[6],"inconclusive: 1.02 µM [activator, partial curve] and inconclusive: 47.5 µM [inhibitor, single point]"
same,Potency,[10],"inactive and inconclusive: 66.4 µM [cytotoxic, partial curve, poor fit]"
CCCCCCCCCCCCCCCC[N+](C)(C)Cc1ccccc1,Potency,[1],"inconclusive: 11.9 µM [cytotoxic, full curve] and inconclusive: 35.5 µM [cytotoxic] and inconclusive: 44.1 µM [cytotoxic, partial curve]"
same,Potency,[2],"active: 26.6 µM and inconclusive: 79.4 µM [cytotoxic, single point] and inconclusive: 69.8 µM [cytotoxic, partial curve, poor fit]"
same,Potency,[3],active: 4.22 µM and active: 10 µM and active: 13.9 µM
same,Potency,[5],"inconclusive: 26.8 µM [cytotoxic, single point] and inconclusive: 16 µM [cytotoxic, full curve] and inconclusive: 19.8 µM [cytotoxic, full curve]"
same,Potency,[6],"inconclusive: 26.8 µM [cytotoxic, single point] and inconclusive: 35.8 µM [cytotoxic, partial curve] and inconclusive: 49.8 µM [cytotoxic, partial curve]"
CCCCC(CC)COC(=O)c1ccc(N(C)C)cc1 (stereo not drawn),Potency,[1],inactive
same,Potency,[2],"inconclusive: 30.8 µM [cytotoxic, partial curve, poor fit] and inconclusive: 17.2 µM [cytotoxic, partial curve, poor fit]"
same,Potency,[3],"inconclusive: 18.8 µM [fluorescent, partial curve, poor fit] and active: 8.68 µM and active: 21.7 µM"
same,Potency,[7],inactive
same,Potency,[10],"inconclusive: 48.6 µM [cytotoxic, partial curve]"
Cc1ccc(S(=O)(=O)Oc2ccc(N=Nc3ccc(-c4ccc(N=Nc5c(O)ccc6cc(S(=O)(=O)O)cc(S(=O)(=O)O)c56)c(C)c4)cc3C)cc2)cc1,Potency,[1],"inconclusive: 61.4 µM and inconclusive: 31.6 µM [cytotoxic, partial curve]"
same,Potency,[2],"inconclusive: 35.5 µM [cytotoxic, partial curve, poor fit]"
same,Potency,[3],"inconclusive: 27.4 µM [cytotoxic, partial curve] and inconclusive: 15.9 µM [cytotoxic, partial curve]"
same,Potency,[6],"inconclusive: 6.19 µM [activator, partial curve]"
same,"activity change, negative = inhibition",[6],inconclusive: 10.8%
same,Potency,[7],inactive
same,Potency,[10],"inconclusive: 68.9 µM [cytotoxic, single point] and inconclusive: 20 µM [cytotoxic, partial curve]"
CCCCCCCC/C=C\CCCCCCCCOCCO,Potency,[1],"inconclusive: 28.2 µM [cytotoxic, full curve]"
same,Potency,[2],active: 79.4 µM
same,Potency,[3],active: 1.78 µM
same,Potency,[5],"inconclusive: 63.7 µM [cytotoxic, partial curve]"
same,Potency,[6],inconclusive: 31.9 µM [cytotoxic]
same,Potency,[7],active: 31.9 µM
CC(C)(C)c1cccc(C(C)(C)C)c1O,activation,[1],inconclusive: 2.83%
same,Potency,[2],inactive
same,Potency,[3],active: 16.8 µM and active: 15.4 µM
same,"activity change, negative = inhibition",[6],inconclusive: 21.9%
CCCCCCCCNC(C)C(O)c1ccc(SC(C)C)cc1 (stereo not drawn),Potency,[1],"inconclusive: 11.9 µM [cytotoxic, full curve]"
same,Potency,[2],"inconclusive: 16.8 µM [cytotoxic, partial curve, poor fit]"
same,Potency,[3],"inconclusive: 6.23 µM [cytotoxic, partial curve, poor fit]"
same,Potency,[5],"inconclusive: 7.56 µM [cytotoxic, full curve]"
same,Potency,[6],"inconclusive: 10.7 µM [cytotoxic, full curve]"
same,Potency,[7],active: 10.7 µM
